Laboratory results taken from the supplement of paper PMC8728848.
Some of the results follow.

What was measured:
Assay in all cases: glycan array binding signal (z-score within array); higher = stronger binding
Conditions in all cases: glycan notation: IUPAC condensed, linker removed
[1] = target: Gal(b1-4)GlcNAc(b1-2)Man(a1-6)[GlcNAc(b1-2)Man(a1-3)]Man(b1-4)GlcNAc(b1-4)GlcNAc
How it was run: (§1)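 Arrays were curated from the Consortium for Functional Glycomics database, 3228 in total, and kept only where the protein sequence was available. Binding is expressed as a within-array Z-score. This score was averaged across arrays of the same protein sequence at different concentrations or buffers and across linkers, and negative values can be read as non-binding.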

[2] = target: Gal(b1-4)GlcNAc(b1-2)Man(a1-6)[Man(a1-3)]Man(b1-4)GlcNAc(b1-4)GlcNAc
How it was run: as §1

[3] = target: Gal(b1-4)GlcNAc(b1-2)[Gal(b1-4)GlcNAc(b1-4)]Man(a1-3)[Gal(b1-4)GlcNAc(b1-2)Man(a1-6)]Man(b1-4)GlcNAc(b1-4)GlcNAc
How it was run: as §1

[4] = target: Gal(b1-4)GlcNAc(b1-2)[Gal(b1-4)GlcNAc(b1-4)]Man(a1-3)[Gal(b1-4)GlcNAc(b1-2)[Gal(b1-4)GlcNAc(b1-6)]Man(a1-6)]Man(b1-4)GlcNAc(b1-4)GlcNAc
How it was run: as §1

[5] = target: Gal(b1-4)GlcNAc(b1-3)Gal(b1-3)GlcNAc
How it was run: as §1

[6] = target: Gal(b1-4)GlcNAc(b1-3)Gal(b1-4)Glc
How it was run: as §1

[7] = target: Gal(b1-4)GlcNAc(b1-3)Gal(b1-4)GlcNAc
How it was run: as §1

[8] = target: Gal(b1-4)GlcNAc(b1-3)Gal(b1-4)GlcNAc(b1-3)Gal(b1-4)GlcNAc
How it was run: as §1

[9] = target: Gal(b1-4)GlcNAc(b1-3)Gal(b1-4)[Fuc(a1-3)]GlcNAc(b1-3)Gal(b1-4)[Fuc(a1-3)]GlcNAc
How it was run: as §1

[10] = target: Gal(b1-4)GlcNAc(b1-3)GalNAc
How it was run: as §1

[11] = target: Gal(b1-4)GlcNAc(b1-3)[Gal(b1-4)GlcNAc(b1-6)]Gal(b1-4)GlcNAc
How it was run: as §1

[12] = target: Gal(b1-4)GlcNAc(b1-3)[Gal(b1-4)GlcNAc(b1-6)]GalNAc
How it was run: as §1

[13] = target: Gal(b1-4)GlcNAc(b1-3)[GlcNAc(b1-6)]Gal(b1-4)GlcNAc
How it was run: as §1

[14] = target: Gal(b1-4)GlcNAc(b1-6)Gal(b1-4)GlcNAc
How it was run: as §1

[15] = target: Gal(b1-4)GlcNAc(b1-6)GalNAc
How it was run: as §1

[16] = target: Gal(b1-4)GlcNAc(b1-6)[Gal(b1-3)]GalNAc
How it was run: as §1

Gal3S(b1-3)GalNAc = target: Gal3S(b1-3)GalNAc
How it was run: as §1

Gal3S(b1-3)GlcNAc = target: Gal3S(b1-3)GlcNAc
How it was run: as §1

[17] = target: Gal3S(b1-3)[Fuc(a1-4)]GlcNAc
How it was run: as §1

Gal3S(b1-4)Glc = target: Gal3S(b1-4)Glc
How it was run: as §1

Gal3S(b1-4)Glc6S = target: Gal3S(b1-4)Glc6S
How it was run: as §1

Gal3S(b1-4)GlcNAc = target: Gal3S(b1-4)GlcNAc
How it was run: as §1

Gal3S(b1-4)GlcNAc6S = target: Gal3S(b1-4)GlcNAc6S
How it was run: as §1

[18] = target: Gal3S(b1-4)[Fuc(a1-3)]Glc
How it was run: as §1

[19] = target: Gal3S(b1-4)[Fuc(a1-3)]Glc6S
How it was run: as §1

Gal3S4S(b1-4)GlcNAc = target: Gal3S4S(b1-4)GlcNAc
How it was run: as §1

Gal3S6S(b1-4)GlcNAc = target: Gal3S6S(b1-4)GlcNAc
How it was run: as §1

Gal3S6S(b1-4)GlcNAc6S = target: Gal3S6S(b1-4)GlcNAc6S
How it was run: as §1

Gal4S(b1-4)GlcNAc = target: Gal4S(b1-4)GlcNAc
How it was run: as §1

Gal4S6S(b1-4)GlcNAc = target: Gal4S6S(b1-4)GlcNAc
How it was run: as §1

Gal6S(b1-4)Glc = target: Gal6S(b1-4)Glc
How it was run: as §1

Gal6S(b1-4)Glc6S = target: Gal6S(b1-4)Glc6S
How it was run: as §1

Gal6S(b1-4)GlcNAc = target: Gal6S(b1-4)GlcNAc
How it was run: as §1

Gal6S(b1-4)GlcNAc6S = target: Gal6S(b1-4)GlcNAc6S
How it was run: as §1

GalNAc(a1-3)Gal = target: GalNAc(a1-3)Gal
How it was run: as §1

GalNAc(a1-3)GalNAc = target: GalNAc(a1-3)GalNAc
How it was run: as §1

[20] = target: GalNAc(a1-3)GalNAc(a1-3)Gal(a1-4)Gal(b1-4)GlcNAc
How it was run: as §1

GalNAc(b1-3)Gal = target: GalNAc(b1-3)Gal
How it was run: as §1

B1: Pp2-A2 (Arabidopsis thaliana), Q07098 (protein)
chain: MPSNGDLDRQIEQLMECKPLSEADVRTLCDQARAILVEEYNVQPVKCPVTVCGDIHGQFYDLIELFRIGGNAPDTNYLFMGDYVDRGYYSVETVSLLVALKVRYRDRLTILRGNHESRQITQVYGFYDECLRKYGNANVWKYFTDLFDYLPLTALIESQVFCLHGGLSPSLDTLDNIRSLDRIQEVPHEGPMCDLLWSDPDDRCGWGISPRGAGYTFGQDIAAQFNHNNGLSLISRAHQLVMEGFNWCQDKNVVTVFSAPNYCYRCGNMAAILEIGENMEQNFLQFDPAPRQVEPDTTRKTPDYFL
**Q.** With B1 as the binder, how does the “glycan array binding signal (z-score)” value [1] read?
**A.** -0.175

**Q.** What about the “glycan array binding signal (z-score)” value [2] of the same binder?
**A.** -0.519

**Q.** And the “glycan array binding signal (z-score)” value [3]?
**A.** -0.448

**Q.** And the “glycan array binding signal (z-score)” value [4]?
**A.** -0.537

**Q.** What about the “glycan array binding signal (z-score)” value [5] of the same binder?
**A.** -0.335

**Q.** And the “glycan array binding signal (z-score)” value [6]?
**A.** -0.032

**Q.** What about the “glycan array binding signal (z-score)” value [7] of the same binder?
**A.** -0.234

**Q.** And the “glycan array binding signal (z-score)” value [8]?
**A.** -0.634

**Q.** What about the “glycan array binding signal (z-score)” value [9] of the same binder?
**A.** 0.048

**Q.** What about the “glycan array binding signal (z-score)” value [10] of the same binder?
**A.** -0.647

**Q.** What about the “glycan array binding signal (z-score)” value [11] of the same binder?
**A.** -0.413

**Q.** And the “glycan array binding signal (z-score)” value [12]?
**A.** -0.584

**Q.** And the “glycan array binding signal (z-score)” value [13]?
**A.** -0.305

**Q.** And the “glycan array binding signal (z-score)” value [14]?
**A.** -0.535

**Q.** What about the “glycan array binding signal (z-score)” value [15] of the same binder?
**A.** -0.378

**Q.** And the “glycan array binding signal (z-score)” value [16]?
**A.** -0.478

**Q.** And the “glycan array binding signal (z-score)” value (Gal3S(b1-3)GalNAc)?
**A.** -0.167

**Q.** What about the “glycan array binding signal (z-score)” value (Gal3S(b1-3)GlcNAc) of the same binder?
**A.** -0.174

**Q.** And the “glycan array binding signal (z-score)” value [17]?
**A.** -0.536

**Q.** And the “glycan array binding signal (z-score)” value (Gal3S(b1-4)Glc)?
**A.** 0.533

**Q.** What about the “glycan array binding signal (z-score)” value (Gal3S(b1-4)Glc6S) of the same binder?
**A.** 3.5

**Q.** What about the “glycan array binding signal (z-score)” value (Gal3S(b1-4)GlcNAc) of the same binder?
**A.** 0.032

**Q.** What about the “glycan array binding signal (z-score)” value (Gal3S(b1-4)GlcNAc6S) of the same binder?
**A.** 3.57

**Q.** And the “glycan array binding signal (z-score)” value [18]?
**A.** 1.27

**Q.** What about the “glycan array binding signal (z-score)” value [19] of the same binder?
**A.** 4.36

**Q.** What about the “glycan array binding signal (z-score)” value (Gal3S4S(b1-4)GlcNAc) of the same binder?
**A.** 6.14

**Q.** What about the “glycan array binding signal (z-score)” value (Gal3S6S(b1-4)GlcNAc) of the same binder?
**A.** 2.2

**Q.** And the “glycan array binding signal (z-score)” value (Gal3S6S(b1-4)GlcNAc6S)?
**A.** 4.5

**Q.** What about the “glycan array binding signal (z-score)” value (Gal4S(b1-4)GlcNAc) of the same binder?
**A.** -0.312

**Q.** What about the “glycan array binding signal (z-score)” value (Gal4S6S(b1-4)GlcNAc) of the same binder?
**A.** 4.54

**Q.** And the “glycan array binding signal (z-score)” value (Gal6S(b1-4)Glc)?
**A.** 1.48

**Q.** What about the “glycan array binding signal (z-score)” value (Gal6S(b1-4)Glc6S) of the same binder?
**A.** 4.11

**Q.** And the “glycan array binding signal (z-score)” value (Gal6S(b1-4)GlcNAc)?
**A.** -0.117

**Q.** What about the “glycan array binding signal (z-score)” value (Gal6S(b1-4)GlcNAc6S) of the same binder?
**A.** 2.28

**Q.** And the “glycan array binding signal (z-score)” value (GalNAc(a1-3)Gal)?
**A.** -0.744

**Q.** What about the “glycan array binding signal (z-score)” value (GalNAc(a1-3)GalNAc) of the same binder?
**A.** -0.325

**Q.** What about the “glycan array binding signal (z-score)” value [20] of the same binder?
**A.** -0.626

**Q.** What about the “glycan array binding signal (z-score)” value (GalNAc(b1-3)Gal) of the same binder?
**A.** -0.79
